Results published in article PMC6522510 (Nature Communications, 2019).
Like-named read-outs stand apart in the source and are kept apart here. Only a part is listed here, and it is no random draw.

What was measured:
[1] = tested on: CMK; experiment: Secondary dose-response HTS, Cell Titer Glo; type: cell-based; settings: Homo sapiens, read-out: average effective concentration, CMK
[2] = tested on: CMS; experiment: Secondary dose-response HTS, Cell Titer Glo; type: cell-based; settings: Homo sapiens, read-out: average effective concentration, CMS
[3] = tested on: MOLM-13; experiment: cells; parameters: species or system AML cell lines (8); Secondary HTS, 10-point dose-response in triplicate, Cell Titer Glo viability, four-parameter fit EC50; settings: Homo sapiens, MOLM-13, 72 h, read-out: MOLM-13
[4] = tested on: MV4-11; experiment: cells; parameters: species or system AML cell lines (8); Secondary HTS, 10-point dose-response in triplicate, Cell Titer Glo viability, four-parameter fit EC50; settings: Homo sapiens, MV4-11, 72 h, read-out: MV4-11
[5] = tested on: CHRF288-11; experiment: cells; parameters: species or system AML cell lines (8); Secondary HTS, 10-point dose-response in triplicate, Cell Titer Glo viability, four-parameter fit EC50; settings: 72 h, read-out: CHRF288-11
[6] = tested on: M07e; experiment: cells; parameters: species or system AML cell lines (8); Secondary HTS, 10-point dose-response in triplicate, Cell Titer Glo viability, four-parameter fit EC50; settings: M-07e, 72 h, read-out: M07e
[7] = tested on: ML-2; experiment: cells; parameters: species or system AML cell lines (8); Secondary HTS, 10-point dose-response in triplicate, Cell Titer Glo viability, four-parameter fit EC50; settings: Homo sapiens, ML-2, 72 h, read-out: ML-2
[8] = tested on: U937; experiment: cells; parameters: species or system AML cell lines (8); Secondary HTS, 10-point dose-response in triplicate, Cell Titer Glo viability, four-parameter fit EC50; settings: Homo sapiens, U-937, 72 h, read-out: U937
[9] = tested on: MV4-11; experiment: Secondary dose-response HTS, Cell Titer Glo; type: cell-based; settings: Homo sapiens, secondary high-throughput screen, read-out: average effective concentration, MV4-11
[10] = tested on: CHRF288-11; experiment: Secondary dose-response HTS, Cell Titer Glo; type: cell-based; settings: Homo sapiens, secondary high-throughput screen, read-out: average effective concentration, CHRF288-11
[11] = tested on: M07e; experiment: Secondary dose-response HTS, Cell Titer Glo; type: cell-based; settings: Homo sapiens, M-07e, secondary high-throughput screen, read-out: average effective concentration, M07e
[12] = tested on: U937; experiment: Secondary dose-response HTS, Cell Titer Glo; type: cell-based; settings: Homo sapiens, U-937, secondary high-throughput screen, read-out: average effective concentration, U937
[13] = tested on: CHRF288-11; parameters: species or system AML cell lines (8); Primary HTS, single concentration about 10 uM, Cell Titer Glo viability; log10 luminescence, per cent inhibition relative to cycloheximide control; settings: 72 h, relative to cycloheximide control, log10 luminescence; inhibitor
[14] = tested on: CMK; parameters: species or system AML cell lines (8); Primary HTS, single concentration about 10 uM, Cell Titer Glo viability; log10 luminescence, per cent inhibition relative to cycloheximide control; settings: 72 h, relative to cycloheximide control, log10 luminescence; inhibitor
[15] = tested on: CMS; parameters: species or system AML cell lines (8); Primary HTS, single concentration about 10 uM, Cell Titer Glo viability; log10 luminescence, per cent inhibition relative to cycloheximide control; settings: 72 h, relative to cycloheximide control, log10 luminescence; inhibitor
[16] = tested on: M07e; parameters: species or system AML cell lines (8); Primary HTS, single concentration about 10 uM, Cell Titer Glo viability; log10 luminescence, per cent inhibition relative to cycloheximide control; settings: 72 h, relative to cycloheximide control, log10 luminescence; inhibitor
[17] = tested on: ML-2; parameters: species or system AML cell lines (8); Primary HTS, single concentration about 10 uM, Cell Titer Glo viability; log10 luminescence, per cent inhibition relative to cycloheximide control; settings: 72 h, relative to cycloheximide control, log10 luminescence; inhibitor
[18] = tested on: MOLM-13; parameters: species or system AML cell lines (8); Primary HTS, single concentration about 10 uM, Cell Titer Glo viability; log10 luminescence, per cent inhibition relative to cycloheximide control; settings: 72 h, relative to cycloheximide control, log10 luminescence; inhibitor
[19] = tested on: MV4-11; parameters: species or system AML cell lines (8); Primary HTS, single concentration about 10 uM, Cell Titer Glo viability; log10 luminescence, per cent inhibition relative to cycloheximide control; settings: 72 h, relative to cycloheximide control, log10 luminescence; inhibitor
[20] = tested on: U937; parameters: species or system AML cell lines (8); Primary HTS, single concentration about 10 uM, Cell Titer Glo viability; log10 luminescence, per cent inhibition relative to cycloheximide control; settings: 72 h, relative to cycloheximide control, log10 luminescence; inhibitor
[21] = tested on: CHRF288-11; experiment: Primary HTS, single concentration, Cell Titer Glo; type: cell-based, human; settings: approximately 10 µM, 72 h, relative to positive control
[22] = tested on: CMK; experiment: Primary HTS, single concentration, Cell Titer Glo; type: cell-based, human; settings: approximately 10 µM, 72 h, relative to positive control
[23] = tested on: CMS; experiment: Primary HTS, single concentration, Cell Titer Glo; type: cell-based, human; settings: approximately 10 µM, 72 h, relative to positive control
[24] = tested on: M07e; experiment: Primary HTS, single concentration, Cell Titer Glo; type: cell-based, human; settings: approximately 10 µM, 72 h, relative to positive control
[25] = tested on: ML-2; experiment: Primary HTS, single concentration, Cell Titer Glo; type: cell-based, human; settings: approximately 10 µM, 72 h, relative to positive control
[26] = tested on: MOLM-13; experiment: Primary HTS, single concentration, Cell Titer Glo; type: cell-based, human; settings: approximately 10 µM, 72 h, relative to positive control
[27] = tested on: MV4-11; experiment: Primary HTS, single concentration, Cell Titer Glo; type: cell-based, human; settings: approximately 10 µM, 72 h, relative to positive control
[28] = tested on: U937; experiment: Primary HTS, single concentration, Cell Titer Glo; type: cell-based, human; settings: approximately 10 µM, 72 h, relative to positive control
[29] = tested on: MOLM-13; experiment: Secondary dose-response HTS, Cell Titer Glo; type: cell-based; settings: Homo sapiens, secondary high-throughput screen, read-out: average effective concentration, MOLM-13
[30] = tested on: ML2; experiment: Secondary dose-response HTS, Cell Titer Glo; type: cell-based; settings: Homo sapiens; secondary high-throughput screen; ML-2; read-out: average effective concentration, ML-2
[31] = tested on: AMKL primary AML blast samples; experiment: Ex vivo drug treatment of primary AML blasts on mesenchymal stromal cells; type: cell-based; settings: Homo sapiens; primary blasts on MSC, 96 h
Procedure: (§1) IC50 concentrations were calculated, as described above.

[32] = tested on: MLLr primary AML blast samples; experiment: as above; type: cell-based; settings: Homo sapiens; primary blasts on MSC, 96 h, range over patient samples
Procedure: as §1

[33] = secondary high-throughput screen

CNC(=O)c1ccccc1Sc1ccc2c(/C=C/c3ccccn3)n[nH]c2c1 [AXITINIB] gave an EC50 [1] of 2100 nM.
For CCS(=O)(=O)N1CC(CC#N)(n2cc(-c3ncnc4[nH]ccc34)cn2)C1 [BARICITINIB], the EC50 [1] was 63 nM, the EC50 [2] was 27 nM and the EC50 [3] was > 10 µM. For the same compound, the EC50 [4] was > 10 µM, the EC50 [5] was > 10 µM and the EC50 [6] was > 10 µM. The EC50 [7] was > 10 µM and the EC50 [8] was > 10 µM.
Compound CO[C@@H]1[C@H](N(C)C(=O)c2ccccc2)C[C@H]2O[C@]1(C)n1c3ccccc3c3c4c(c5c6ccccc6n2c5c31)C(=O)NC4 [MIDOSTAURIN] has an EC50 [9] of 55 nM, an EC50 [10] of 60 nM and an EC50 [1, 33] of 34 nM. For the same compound, the EC50 [11] was 0.027 µM and the EC50 [12] was 2400 nM.
Work on CC(C)OC(=O)C(C)(C)Oc1ccc(C(=O)c2ccc(Cl)cc2)cc1 [SJ000285834-7, FENOFIBRATE] yielded a CHRF288-11 %inh [13] of -0.7715%, a CMK %inh [14] of -2.08% and a CMS %inh [15] of -2.077%. For the same compound, the M07e %inh [16] was -2.895%, the ML-2 %inh [17] was -2.092% and the MOLM-13 %inh [18] was -2.915%. The MV4-11 %inh [19] was -2.641% and the U937 %inh [20] was -2.311%.
With O=C(CCCCCCC(=O)Nc1ccccc1)NO [Vorinostat] the CHRF288-11 %inh [21] was 213%, the CMK %inh [22] was 120% and the CMS %inh [23] was 118%. It also gave an M07e %inh [24] of 148%, an ML-2 %inh [25] of 76% and an MOLM-13 %inh [26] of 126%. For the same compound, the MV4-11 %inh [27] was 115%, the U937 %inh [28] was 116% and the EC50 [29] was 1400 nM. For the same compound, the EC50 [10] was 2700 nM, the EC50 [1, 33] was 700 nM and the EC50 ([2]; secondary high-throughput screen, CMS) was 2100 nM. The EC50 [11] was 10 µM, the EC50 [30] was 3.1 µM and the EC50 [12] was 1600 nM. The IC50 [31] was 637 nM and the IC50 [32] was 711 to 1200 nM.
